The source of these data is paper PMC12040169 (PLOS Biology, 2025).

Structures are written as SMILES. This is one part of the list.

The subject of this assay is T1, C. trachomatis L2/434/Bu expressing GFP (CTL2-GFP).
T1 construct: L2/434/Bu GFP intracellular growth in HeLa cells
More on the design: species or system HeLa; C. trachomatis total inclusion area by high-content imaging, normalised to DMSO. The note with it: total inclusion area; 28.5 h, 10 µM; inhibitor. Summed up:
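Post-fluorescence-read fixation, DNA staining with Hoechst and high-content imaging; GFP inclusion area and number per well, and nuclei counts, used as proxies for bacterial growth and host viability.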
Consider `C=CCn1c(SCC(=O)Nc2cc(Cl)ccc2O)nnc1-c1ccccc1O` [CBK269102], for which the “% of control remaining” value was found to be 89.3027.

Turning to `Cc1noc(C)c1NC(=O)c1cnccn1` [CBK200390], the “% of control remaining” value turned out to be 92.0022.

On to `CC(=O)c1ccc(-c2nccnc2NCCc2ccncc2)s1` [CBK037300], for which the “% of control remaining” value is listed as 111.145.

As to `CC(C)n1nccc1NC(=O)CCn1c(C(F)F)cc2cccnc21` [CBK284690], the “% of control remaining” value turned out to be 53.4248.

For `CSc1ncc(CNC(=O)Nc2ccc3c(c2)CCC3)n1C` [CBK306996], the “% of control remaining” value is recorded as 85.1861.

On to `Cc1ccc(NCC2CCN(Cc3cc(=O)n4ccccc4n3)C2)nc1` (centres unmarked) [CBK306334], for which the “% of control remaining” value was found to be 28.9411.

Regarding `CCOC(=O)CCCNC(=O)N(CC)Cc1ccccc1` [CBK155252], the “% of control remaining” value came to 124.057.

Consider `COc1ccc(CN2CCNC(=O)C2CC(=O)O)c(F)c1` (centres unmarked) [CBK270143], for which the “% of control remaining” value is 102.954.

`O=C(c1csc(-c2ccccc2)n1)N1CCn2nc(C3CC3)cc2C1` [CBK304676]: the “% of control remaining” value was determined as 70.1321.

Take `CC(=O)NC(=O)c1cccc(Br)c1` [CBK022890]: the “% of control remaining” value is 65.7274.

With `COc1ccc(O)c(C(=O)c2cnn(-c3ccccn3)c2)c1` [CBK295141], the “% of control remaining” value stood at 107.949.

With `CCNC(=O)c1cnc(-c2ccc(Cl)cc2)c(-c2cccnc2)c1` [CBK037584], the “% of control remaining” value was found to be 110.182.

For `Cc1nn(C(C)CC(=O)NCC2CCN(C(C)C)CC2)c(C)c1C` (centres unmarked) [CBK282703], the “% of control remaining” value amounted to 91.6531.

Take `Cn1c(C2CC2)nc2c1CCN(Cc1cc(=O)n(C)c(=O)n1C)C2` [CBK304025]: the “% of control remaining” value came out at 51.2637.

With `CC1CCc2c(sc3nc(CN4CCCCC4C)[nH]c(=O)c23)C1` (centres unmarked) [CBK304975], the “% of control remaining” value is reported as 80.7661.

In the case of `COc1cc(NC(=O)Cn2c(-c3cncs3)nc3ccccc32)cc(OC)c1OC` [CBK267640], the “% of control remaining” value is reported as 92.7721.

With `CC(C(=O)N1CCCCC1)n1sc2ccccc2c1=O` (centres unmarked) [CBK116322], the “% of control remaining” value is 90.1788.

With `O=C(O)CCC(=O)CCC(=O)c1ccc(F)cc1` [CBK287191], the “% of control remaining” value worked out at 93.5863.

Consider `CN1CCC(N(C)C(=O)NCc2cccnc2)C1` (centres unmarked) [CBK156001], for which the “% of control remaining” value was 94.4918.

`COc1cccc(CN2CC[C@H]3[C@@H](C2)[C@H](c2ccsc2)CN3C(=O)c2ccccc2)c1` [CBK285616]: the “% of control remaining” value was found to be 105.468.

Regarding `Nc1ncnc(NCCc2ccc(S(N)(=O)=O)cc2)c1[N+](=O)[O-]` [CBK267320], the “% of control remaining” value turned out to be 97.324.

Consider `O=C(O)c1cccc(OCc2nnnn2-c2ccc(Br)cc2)c1` [CBK286744], for which the “% of control remaining” value is reported as 110.479.

In the case of `CCOc1cc(NC2CCN(C(=O)C3CCCC(C)(C)C3)CC2)ncn1` (centres unmarked) [CBK305547], the “% of control remaining” value was found to be 32.583.

As to `Cc1ccc(S(=O)(=O)NC(=O)N2CCCC2)cc1` [CBK001984], the “% of control remaining” value came out at 83.805.

On to `CCc1nc(C)ccc1OCC(O)CNC(C)(C)C` (centres unmarked) [CBK019698], for which the “% of control remaining” value is on record as 100.244.

`COc1ccc(OCC(O)Cn2c(CCCO)nc3ccccc32)cc1` (centres unmarked) [CBK305579]: the “% of control remaining” value turned out to be 34.5343.

Turning to `CC1CN(Cc2nc3c(c(=O)[nH]c(=O)n3C)n2CCc2ccccc2)CC(C)O1` (centres unmarked) [CBK269876], the “% of control remaining” value is given as 97.6966.

On to `COc1cccc(CCOc2cncc(Cl)n2)c1` [CBK113556], for which the “% of control remaining” value worked out at 32.1698.

As for `Cc1cc(O)nc(SCC(=O)Nc2cc([N+](=O)[O-])ccc2C)n1` [CBK267488], the “% of control remaining” value was 87.1166.

For `Cc1n[nH]c(C)c1CNC(=O)C1(c2ccccc2F)CC1` [CBK283156], the “% of control remaining” value is listed as 122.125.

Take `CN(CCOc1ccccc1)c1cc(C2CC(N)C2)nc(N)n1` (centres unmarked) [CBK306849]: the “% of control remaining” value worked out at 28.8976.

`CCCNC(=O)Cn1nc(C)n2c(cc3sc(C)cc32)c1=O` [CBK284068]: the “% of control remaining” value was determined as 97.4353.

With `O=C1CCC(=O)N1CCOc1nccnc1OC1CCN(CCCn2c(=O)[nH]c3ccccc32)CC1` [CBK084350], the “% of control remaining” value came to 91.6155.

As for `Cc1ccc(C(=O)C(C)OC(=O)c2ccc(NC(=O)c3ccccc3)cc2)cc1` (centres unmarked) [CBK264302], the “% of control remaining” value is recorded as 122.012.

With `O=C(CSc1nnc(-c2ccncc2)[nH]1)c1ccc(O)cc1O` [CBK264353], the “% of control remaining” value was 110.535.

`Cc1n[nH]c(NN)c1Cl` [CBK260876C]: the “% of control remaining” value came to 98.3174.

As for `CC(C)(C)NS(=O)(=O)c1ccccc1[N+](=O)[O-]` [CBK260932], the “% of control remaining” value is reported as 78.1788.

As for `FC(F)(F)c1cccc(CSc2cc(N3CCCC3)ncn2)c1` [CBK107184], the “% of control remaining” value was determined as 90.9202.

As for `C=CCNc1nccnc1-c1ccc(O)cc1` [CBK036898], the “% of control remaining” value was 149.519.

As to `O=C(CC1CCCC1)N1CCCC(c2cc3cccnc3[nH]2)C1` (centres unmarked) [CBK284940], the “% of control remaining” value stood at 80.5215.

In the case of `CC(C)CNc1nc(SCC(N)=O)nc(N(C)C)n1` [CBK269579], the “% of control remaining” value stood at 95.8138.

For the compound `O=C(Nc1nnc[nH]1)c1ccccc1CCc1ccccc1` [CBK268616], the “% of control remaining” value is reported as 112.138.

For `Cc1cc(-c2nnc3n2N=C(c2ccccc2)CS3)n[nH]1` [CBK287944], the “% of control remaining” value turned out to be 132.119.

In the case of `CC1CCCC(C)N1C(=O)Cn1c(=O)n(C)c2ncccc21` (centres unmarked) [CBK282389], the “% of control remaining” value came out at 86.6255.

Turning to `O=c1[nH]c2ccccc2cc1CNc1ccc(F)cc1F` [CBK281933], the “% of control remaining” value was 98.7144.

Take `OC1(c2cccnc2F)CCN(Cc2cc(F)cc(F)c2)CC1` [CBK285375]: the “% of control remaining” value is reported as 79.9356.

With `COc1ncc(-c2cnc(N)c(-c3cccc(N(C)C)c3)n2)c(OC)n1` [CBK064017], the “% of control remaining” value is 133.415.

On to `O=C1NC2(CC3CCC2CC3C(=O)NC2CC2)Oc2ccccc21` (centres unmarked) [CBK284352], for which the “% of control remaining” value turned out to be 77.4831.

With `CN(C)c1ccc(-c2nc(-c3cccc(OC(F)(F)F)c3)cnc2N)cc1` [CBK063942], the “% of control remaining” value turned out to be 123.507.

Turning to `O=C(O)c1ccc(S(=O)(=O)c2ccc3c(c2)C(=O)N(c2cc(C(=O)O)cc(C(=O)O)c2)C3=O)cc1` [CBK262824], the “% of control remaining” value was determined as 108.148.

Regarding `O=C(Nc1ccc(O)cc1C(=O)O)c1ccc2c(c1)C(=O)N(Cc1ccccc1)C2=O` [CBK266540], the “% of control remaining” value was determined as 99.2671.

Regarding `Nc1ccc(-c2cn3ccnc3c(NCc3ccccc3)n2)cc1` [CBK066592], the “% of control remaining” value turned out to be 85.1934.

In the case of `Cc1cc(/C=C(/C#N)c2nc3ccccc3[nH]2)c(C)n1-c1ccc(N2CCOCC2)cc1` [CBK263792], the “% of control remaining” value worked out at 95.7675.
